# Laboratory results: PMC4336329 (PLoS ONE, 2015)
# In all, about 310,000 compounds went through this assay and about 14,000 (4.5%) showed an effect of 50% or more. The effect is printed as a negative number. The list shows a part of the results.
# Target: human ether-à-go-go-related gene (hERG) potassium channel (human, UniProt Q12809)
# Assay: primary screen, population patch clamp on CHO cells stably expressing hERG
# 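Further: peak tail current of the secondary pulse compared with the same well before compound.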
# Chain of human ether-à-go-go-related gene (hERG) potassium channel (Q12809 whole entry, looked up): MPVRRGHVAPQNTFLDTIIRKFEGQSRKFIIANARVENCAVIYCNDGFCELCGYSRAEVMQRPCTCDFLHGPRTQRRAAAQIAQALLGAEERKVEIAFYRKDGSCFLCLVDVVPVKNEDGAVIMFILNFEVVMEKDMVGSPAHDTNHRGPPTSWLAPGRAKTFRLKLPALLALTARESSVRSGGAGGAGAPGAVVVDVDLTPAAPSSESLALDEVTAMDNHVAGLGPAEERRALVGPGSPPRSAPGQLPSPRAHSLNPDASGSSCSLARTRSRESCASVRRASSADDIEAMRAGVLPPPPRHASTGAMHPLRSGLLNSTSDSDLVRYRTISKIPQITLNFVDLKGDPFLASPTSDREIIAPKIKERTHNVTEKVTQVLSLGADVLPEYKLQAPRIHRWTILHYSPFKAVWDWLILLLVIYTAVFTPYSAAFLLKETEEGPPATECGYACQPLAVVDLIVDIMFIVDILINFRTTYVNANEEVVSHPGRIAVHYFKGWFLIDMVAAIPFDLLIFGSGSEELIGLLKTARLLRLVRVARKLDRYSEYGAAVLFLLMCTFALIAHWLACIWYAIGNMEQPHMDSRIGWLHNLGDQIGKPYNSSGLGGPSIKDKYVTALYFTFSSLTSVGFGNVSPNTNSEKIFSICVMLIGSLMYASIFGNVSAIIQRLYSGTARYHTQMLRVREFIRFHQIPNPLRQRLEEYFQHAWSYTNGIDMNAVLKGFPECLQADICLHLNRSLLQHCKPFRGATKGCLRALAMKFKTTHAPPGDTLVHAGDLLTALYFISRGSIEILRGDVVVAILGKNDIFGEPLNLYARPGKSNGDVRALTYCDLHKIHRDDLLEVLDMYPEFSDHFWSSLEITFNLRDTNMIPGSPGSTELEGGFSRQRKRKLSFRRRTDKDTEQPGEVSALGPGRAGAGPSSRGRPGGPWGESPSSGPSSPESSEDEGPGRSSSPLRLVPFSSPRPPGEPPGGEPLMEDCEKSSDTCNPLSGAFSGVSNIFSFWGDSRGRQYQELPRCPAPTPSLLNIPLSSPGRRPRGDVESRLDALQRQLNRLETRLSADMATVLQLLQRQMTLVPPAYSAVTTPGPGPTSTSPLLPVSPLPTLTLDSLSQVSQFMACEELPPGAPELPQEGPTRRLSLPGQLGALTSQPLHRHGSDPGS
row,SMILES,"hERG current change (%, negative = inhibition) at 10uM [%]"
1,CCOc1ccc(CCNC(=O)COC(=O)/C=C/c2cccc(OC)c2)cc1OCC,-1.47
2,CCOC(=O)C[C@H]1c2ccccc2S(=O)(=O)N1Cc1cccc(C(F)(F)F)c1,-24.8
3,CCOc1ccc(NC(=O)c2c(NC(=O)CNCCN3CCOCC3)sc3c2CCC3)cc1,-69.3
4,CCc1nc(SCC(=O)Nc2ccc(F)cc2F)c2c(=O)n(C)c(=O)n(C)c2n1,10.2
5,CCOC(=O)CN(C(=O)c1snc(C(N)=O)c1N)C(C(=O)NC1CCCCC1)c1ccc(F)cc1 (stereo not drawn),-2.27
6,Cc1cc(C)cc(NC(=O)c2nnn(Cc3cc(C)ccc3C)c2N)c1,-5.28
7,Brc1ccc(Oc2nnnn2-c2ccccc2)cc1,-26.7
8,COC(=O)c1noc(-c2ccc(OC)cc2)n1,-2.85
9,Cn1c(SCc2nc3ccccc3[nH]2)nnc1-c1ccccn1,-8.29
10,CCC(C)[C@H](NC(=O)NCC1CCCO1)C(=O)OC (stereo partly drawn),19.1
11,Cc1[nH]c2ccc(OC(F)(F)F)cc2c1CCNCc1ccc(Cl)cc1.O=C(O)C(=O)O,-34.5
12,O=C(OCC(=O)N1CCN(C(=O)COC(=O)c2ccc(O)cc2O)CC1)c1ccc(O)cc1O,18
13,O=C(O)C1C2C=CC(C2)C1C(=O)NCc1ccco1 (stereo not drawn),17.2
14,O=C(CP(=O)(c1ccccc1)c1ccccc1)N1CCOCC1,11
15,O=C(CNC(=O)Cc1ccccc1)NCC(=O)OCC(=O)c1ccccc1Cl,-3.44
16,O=C(COC(=O)CSc1nnc(-c2ccc(Cl)cc2)o1)Nc1cc(Cl)ccc1Cl,-11.4
17,OCCC1CN(Cc2ccn[nH]2)CCN1Cc1ccc(F)c(F)c1 (stereo not drawn),9.54
18,COCCCNC(=S)N(Cc1ccccc1)Cc1nc2ccccc2c(=O)[nH]1,-10.1
19,CCc1ccccc1NC(=O)CSc1nnc([C@H](CCSC)NC(=O)OC(C)(C)C)o1,-7.44
20,Cc1ccc(NC(=S)Nc2ccc3cn[nH]c3c2)cc1C,-14.5
21,C[C@@H](C(=O)Nc1ccccc1N1CCOCC1)N1C(=O)C2CC=CCC2C1=O (stereo partly drawn),16.8
22,Cc1c(C(=O)Nc2cccc3cccnc23)oc2ccccc12,10.5
23,Cc1ccc(C(c2nnnn2C2CCCC2)N2CCN3CCCC3C2)cc1 (stereo not drawn),-26

row,SMILES,"hERG current change (%, negative = inhibition) at 10uM [%]"
1,COc1ccc(/C=C/C(=O)OCC(=O)Nc2cccc(C(C)=O)c2)cc1,8.25
2,COc1ccc(CC(=O)NNC(=S)Nc2ccccc2)cc1Cl,8.44
3,CCOC(=O)CSc1nnc(Cn2nnc3ccccc32)n1-c1ccc(F)cc1,-5.72
4,Cc1ccc(CCN2CC(C(=O)NCCC(C)C)CC2=O)cc1 (stereo not drawn),-5.98
5,O=C(O)c1sc2cc(Cl)ccc2c1Cl,7.92
6,COc1cc(/C=N/NC(=O)c2ccc3c(c2)OCCO3)c(Br)c(Br)c1O,10.8
7,Cc1ccccc1COc1ccc(/C=N/NC(=O)c2nnn(-c3nonc3N)c2CN2CCC(C)CC2)cc1,7.92
8,CCOc1ccc(N(CC)C(=O)COc2cc(=O)n(CC)c3ccccc23)cc1,-16.1
9,O=C(NCCCN1CCOCC1)c1ccc(Br)s1,-6.05
10,CC1CC(C)(C)OC(C[N+]2(C)CCCCC2)O1.[I-] (stereo not drawn),23.7
11,O=c1c2ccccc2nc2n1C(CBr)CS2 (stereo not drawn),15.6
12,O=C(Nn1c(O)c(C=C2N=c3ccccc3=N2)sc1=S)c1cccc(Cl)c1,3.39
13,CC(CCc1ccccc1)NC(=O)CSc1cccc[n+]1[O-] (stereo not drawn),16.8
14,COC(=O)c1ccc(NC(=O)COc2ccc(N(C)S(=O)(=O)c3ccc(C)cc3)cc2)cc1,-11.1
15,CC/C(=C\C(=O)c1cccnc1)Nc1ccc(C)c(C)c1,-2.24
16,CCOC(=O)c1ccc2c(c1)N(CC(=O)N1CCCC1)C(=O)C(C)(C)O2,-6.15
17,COc1ccc(Cl)c2sc(N3CCN(C(=O)c4ccco4)CC3)nc12,-11
18,O=C(O)Cn1cc(C(=S)N2CCOCC2)c2ccccc21,-4.28
19,Cc1cccc(OCc2nnc3n2CCCCC3)c1,-11.2
20,Cc1cc(NC(=NC2CC2)c2ccccc2F)n(-c2ccccc2)n1,-3.89
21,COc1cc(CCC(=O)OCC(=O)Nc2ccc(Br)cc2F)cc(OC)c1OC,-11.6
22,CCCP(=O)(CCC)CCP(=O)(c1ccccc1)c1ccccc1,20.2
23,O=C(CSc1nc2[nH]ncc2c(=O)[nH]1)NCCc1ccccc1,26.9

row,SMILES,"hERG current change (%, negative = inhibition) at 10uM [%]"
1,CCCCc1nc2ccccc2c(NC(=O)CN(CC)CC)c1CCC.O=C(O)C(=O)O,-26.8
2,C/C(CC(=O)Nc1cccc(C(F)(F)F)c1)=N\NC(=O)Cc1ccccc1,15.7
3,CSc1ccc(CN(C)C(=O)c2cccc(S(=O)(=O)NCc3ccccc3)c2)cc1,-11.1
4,O=C1C=C(c2cccc(Br)c2)C[C@@H](c2ccc(F)cc2)C1,-2.46
5,CCOc1ccc2ccccc2c1/C=N/NC(=O)CNC(=O)c1ccccc1O,0.596
6,CCOC(=O)c1c(NC(=O)C2=C(C)NC(=S)NC2c2ccc(CC)cc2)sc(C)c1C (stereo not drawn),7.47
7,CC12CCC(=O)N1C(C(=O)Nc1nc(-c3ccc(F)cc3)cs1)CS2 (stereo not drawn),6.39
8,O=C(C1COc2ccccc2O1)N1CCN(c2ccccc2O)CC1 (stereo not drawn),-12.5
9,N#CCCN(C(=O)COc1ccc(Cl)cc1Cl)c1ccccc1,-37.5
10,CC(=O)c1cc(F)c(N2CCN(c3ccc([N+](=O)[O-])cc3F)CC2)cc1C,-12.3
11,Oc1ccc(N=Nc2ccccc2)o1,9.51
12,CC1=NNC(=O)C1CCC(=O)N/N=C\c1ccc(Cl)c(Cl)c1 (stereo not drawn),7.67
13,Nc1nonc1-n1nnc(C(=O)N/N=C/c2ccncc2)c1-c1ccccc1,14.2
14,O=C(/C=C/c1ccco1)N(Cc1ccccc1F)C1CCS(=O)(=O)C1 (stereo not drawn),-5.23
15,CSc1ccccc1NC(=O)CN1CCN(Cc2ccccc2)CC1,-66.3
16,CCN(CC)CCCNC(=O)c1cc2nc3c(c(C(F)(F)F)n2n1)CCc1ccccc1-3,-37.1
17,O=C(CC(=O)NCc1cccnc1)NCc1cccnc1,-5.35
18,CCn1cnc2c1c(=O)n(CC(=O)Nc1cc(C)on1)c(=O)n2Cc1ccccc1,2.01
19,O=C(Nc1nnc(C2CCCO2)s1)c1cccs1 (stereo not drawn),1.35
20,Cc1cc(C)cc(C(=O)N2CCC3(CC2)NCCc2[nH]cnc23)c1,19.8
21,CC(=O)Nc1ccccc1C(=O)OCc1ccccc1F,3.58
22,CCCn1c(-c2ccc(F)cc2)cnc1SCC(=O)O,8.51
23,CCCn1nc(Oc2nc(NC(C)C)nc(N(C)C)n2)ccc1=O,20.7

row,SMILES,"hERG current change (%, negative = inhibition) at 10uM [%]"
1,CC1CN(Cc2ccccc2)c2nc3c(c(=O)[nH]c(=O)n3C)n2C1 (stereo not drawn),-5.62
2,CCS(=O)(=O)N1CCN(c2ncnc3sc(C)c(C)c23)CC1,-53.7
3,Cc1cc(C)c(S(=O)(=O)NCc2csc(C)n2)c(C)c1,13.2
4,C=CCOc1c(Br)cc(/C=C2/C(=O)ON=C2C)cc1OC,5.84
5,O=C(c1ccc([N+](=O)[O-])cc1)N1CCN(C(=O)C2CCCCC2)CC1,-28.5
6,CC(C)CC(NC(=O)CCl)c1ccccc1 (stereo not drawn),2.29
7,CC(C)n1c(N2CCN(C(=O)NCc3ccccc3)CC2)nc2ccccc21,-59.2
8,c1ccn2c(SCc3cn4ccsc4n3)nnc2c1,6.9
9,Cn1c(SCC(=O)c2c(N)n(C)c(=O)n(C)c2=O)nnc1-c1ccc(F)cc1,17.6
10,COc1cc(/C=N/n2c(-c3ccccc3)n[nH]c2=S)ccc1O,-4.77
11,COC(=O)c1ccc(/C=C/c2c(-c3ccc(OC)cc3)oc3ccccc23)cc1,7.39
12,CNC(C)Cc1ccccc1Sc1ccc(O)cc1.Cl (stereo not drawn),-66.7
13,COc1ccc(NC(=O)COC(=O)c2n[nH]c3ccccc23)c(OC)c1,-4.2
14,CCC1S/C(=N\S(=O)(=O)c2cccs2)N(C2CCCCC2)C1=O (stereo not drawn),-6.13
15,CCCCC(=O)OCc1c(-c2ccccc2)ncc2ccccc12,3.13
16,Cc1ccc(C(=O)NCC2CCCN2S(=O)(=O)c2ccc(C)cc2)cc1 (stereo not drawn),-33.8
17,Cc1nn(Cc2ccccc2)c(C)c1C(=O)OCC(=O)NCc1ccco1,-34.3
18,Br.N#Cc1ccc(CSC2=NCCN2)cc1,-4.5
19,Cc1ccc(S(=O)(=O)NNC(=O)C2CCCCC2)cc1,9.57
20,COC(=O)COc1ccc(-n2cnnn2)cc1,25.8
21,Cc1ccnc(NC(=O)CS(=O)(=O)c2ccccc2)c1,1.38
